Data taken from PubChem BioAssay AID1346428 (National Center for Advancing Translational Sciences (NCATS), 2018).
Values joined by “and” are separate entries in the source; they are usually repeats but may differ in a detail not shown here. Equal values may be shown once. Among all 48,000 compounds or so, about 1,200 (2.5%) were called active. Roughly 2% stayed inconclusive and do not appear here.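 Rule for the calls: active = activation of at least 60% and not above a set upper limit (about 1 call in 100 departs from these limits); inconclusive = activation of 40% to 60%, or above that upper limit; inactive = activation under 40%.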 The list shows a part of the results.

target: Probable G-protein coupled receptor 32 (Homo sapiens) (UniProt O75388); assay: qHTS for Agonists of Human Resolvin D1 Receptor DRV1; details: CHO-K1 GPR32 beta-arrestin PathHunter luminescence, 90 min; at 76.9 µM; active compounds read high; zero percent set by DMSO-only wells; note: 0% is about no effect
Procedure, shortened: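 PathHunter enzyme-fragment complementation, CHO-K1 GPR32 stable line; 2,500 cells/well, overnight attach; cpd 90 min 37 °C 5% CO2; detection reagent 1 h RT; chemiluminescence. DMSO = EC0.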

Chain of UniProt O75388 (O75388 whole entry, looked up, the tested form may be a part): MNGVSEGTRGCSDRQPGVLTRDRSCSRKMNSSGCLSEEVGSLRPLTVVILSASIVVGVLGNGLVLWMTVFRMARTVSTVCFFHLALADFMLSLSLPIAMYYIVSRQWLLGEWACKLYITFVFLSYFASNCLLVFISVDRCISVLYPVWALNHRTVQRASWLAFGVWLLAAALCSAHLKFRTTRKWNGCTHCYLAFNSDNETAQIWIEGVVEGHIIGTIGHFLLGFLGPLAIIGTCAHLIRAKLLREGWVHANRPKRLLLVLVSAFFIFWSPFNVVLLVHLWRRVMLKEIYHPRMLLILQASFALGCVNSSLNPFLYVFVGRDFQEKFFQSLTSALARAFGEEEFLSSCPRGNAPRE

Row | SMILES | activation
1 | CCOc1ccc(CCNC(=O)C2Cc3ccccc3N2C(=O)CC)cc1OCC (centres undefined) | inactive: -20.4%
2 | CC(=O)c1ccc(NC(=O)CSc2ccc3nc(-c4ccccc4)cn3n2)cc1 | inactive: -0.489%
3 | Cc1ccc(-c2cc(C(=O)N3CCN(S(=O)(=O)c4ccc(Br)s4)CC3)[nH]n2)c(C)c1 | inactive: -18.1%
4 | CN(C)c1ccc(CNC(=O)C(Cc2ccccc2)NS(=O)(=O)c2ccc3c(c2)oc(=O)n3C)cc1 (centres undefined) | active: 94.3%
5 | Cc1ccc(N(CC(=O)Nc2ccc(Br)c(C)c2)S(=O)(=O)c2cccs2)cc1 | inactive: -1.55%
6 | CCc1ccc(CNC(=O)Cc2c(C(=O)O)c(C)cn2C)cc1 | inactive: 7.27%
7 | CCc1nnc(SCc2nc(-c3ccccc3)oc2C)c2cc3sccc3n12 | inactive: -5.86%
8 | COc1ccc(-c2cn3nc(N4CCC(C(=O)Nc5cc(Cl)ccc5OC)CC4)sc3n2)cc1 | inactive: -6.82%
9 | CC(C)(C)OC(=O)N1CCC(c2c(C(=O)N3CCN(c4ncccn4)CC3)cnn2-c2ccc(F)cc2F)CC1 | inactive: -8.95%
10 | Cc1ccc(C)c(NC(=O)Cn2c(=O)n(Cc3cccs3)c(=O)c3cccnc32)c1 | inactive: -34.4%
11 | Nc1c(C(=O)Nc2ccc(Cl)cc2F)sc2nc(-c3cccs3)ccc12 | inactive: -10.5%
12 | COc1ccc(-c2nc(SCC(=O)N3CCC(C)CC3)n[nH]2)cc1 | inactive: -4.51%
13 | COc1ccc(OC)c(NC(=O)C(CCSC)NS(=O)(=O)c2cccs2)c1 (centres undefined) | inactive: -9.79%
14 | CCOC(=O)c1c(S(=O)(=O)NCC(=O)NCc2ccc(C)cc2)c(C)n(C)c1C | inactive: 1.05%
15 | Cc1ccccc1C(=O)Nc1ccc2nc(SCCOc3ccccc3)sc2c1 | inactive: -6.95%
16 | Fc1ccc(CNc2cc(-c3ccccc3)nc3nncn23)cc1 | inactive: 3.24%
17 | COc1ccc(C(=O)Nc2ccc(C(=O)OCc3cc(=O)n4nc(C(C)C)sc4n3)cc2)cc1 | inactive: -13.3%
18 | Cc1ccc(Cl)cc1NC(=O)/C(C#N)=C\c1cn(Cc2ccc(F)cc2)c2ccccc12 | inactive: 7.85%
19 | C[N+](C)(C)CCCCCC[N+](C)(C)C | inactive: -0.777% and inactive: 5.6% and inactive: 3.82%
20 | CC(=O)c1cccc(NC(=O)Cn2c(C)c3cnn(-c4ccccc4)c(=O)c3c2C)c1 | inactive: 3.74%
21 | Cc1cccc(C(=O)N(Cc2nc(-c3ccc(Cl)cc3)no2)C(C)C)c1 | inactive: -13.5%

Row | SMILES | activation
22 | Cc1ccc2c(CNC3CCC(C)CC3)c(C(=O)O)n(Cc3cccc(F)c3)c2c1 (centres undefined) | inactive: 0.401%
23 | CCN(CC)CCNC(=O)c1ccc2c(c1)N(Cc1ccccc1)C(=O)c1ccccc1S2=O (centres undefined) | inactive: -14.1%
24 | COc1ccc(-n2c(=O)c3sc4ccccc4c3n(Cc3ccccc3)c2=O)cc1 | inactive: -4.64%
25 | CCSc1nc(=O)c2c(n1C)NC(=O)CC2c1ccc(O)cc1OC (centres undefined) | inactive: -8.54%
26 | CCc1ccc(OCC(=O)NCC(c2ccc(OC)cc2)N2CCOCC2)cc1 (centres undefined) | inactive: -16.6%
27 | Cc1cccc(C)c1NC(=O)CN(C)S(=O)(=O)c1ccc2c(c1)n(C)c(=O)c(=O)n2C | inactive: -22.4%
28 | COc1ccc(C(=O)Nc2ccc3nc(SCC(=O)N4CCOCC4)sc3c2)cc1 | inactive: -0.0952%
29 | COC(=O)c1ccc(OC)c(Cn2c(=O)n(-c3ccc(C)cc3)c(=O)c3c2cnn3C)c1 | inactive: -11.3%
30 | COc1ccc(C2CC(=O)N(CC(=O)Nc3ccc(C(F)(F)F)cc3)c3ccccc3S2)cc1 (centres undefined) | inactive: -7.11%
31 | COc1cc(NC(=O)c2cc3nc(-c4ccccc4)cc(-c4ccccc4)n3n2)c(OC)cc1Cl | inactive: -0.0275%
32 | COc1cc2c(cc1OC)C(c1ccc(F)cc1)N(c1ccc(F)cc1)C(=O)C2 (centres undefined) | inactive: -9.51%
33 | CC1CCN(c2nc3ccc(C(=O)NCc4ccc(Cl)cc4)cc3s2)CC1 | inactive: -19.2%
34 | O=C(Cn1c(=O)nc(-c2ccccc2)c2cc(Cl)ccc21)NCCCc1ccccc1 | active: 94.2%
35 | CCc1nn(CC(=O)NC2CC2)c(=O)c2cc3ccccc3n12 | inactive: -2.77%
36 | CCCCCC[C@@H]([C@@H](C)O)n1cnc2c(N)ncnc21 | inactive: 10.6%
37 | Cn1cc(C(=O)NCc2ccccc2)c(=O)c2cc(S(=O)(=O)N3CCCCCC3)ccc21 | inactive: -0.454%
38 | COc1cccc(CNC(=O)c2c3c(nc4ccccc24)C(=O)N(C2CCCCC2)C3)c1 | inactive: -11.7%
39 | Cc1ccc(C)c(CSc2nc3ccncc3n2Cc2nc(-c3ccccc3Cl)oc2C)c1 | inactive: -33.9%
40 | Cc1ccccc1Oc1nc2c(c(=O)n(C)c(=O)n2C)n1Cc1ccc(Br)cc1 | inactive: 11.6%
41 | O=C(Nc1ccc(OC(F)(F)F)cc1)NC1COc2ccccc2C1 (centres undefined) | inactive: 6.98%
42 | CCCCc1ccc(Nc2ncnc3c2cnn3-c2ccc(C)cc2)cc1 | inactive: 4.63%

Row | SMILES | activation
43 | CCC1CCCCN1C(=O)Cn1c(=O)n(CC2CCC(C(=O)NC)CC2)c(=O)c2sccc21 (centres undefined) | inactive: -17.1%
44 | CC(NC(=O)CSc1n[nH]c(-c2ccccc2)n1)c1nc2ccccc2n1C (centres undefined) | inactive: -2.33%
45 | COc1cc(OC)c(NC(=O)c2cc(S(=O)(=O)N3CCCC3)cn2C)cc1Cl | inactive: -8.43%
46 | Cc1ccc(S(=O)Cc2nc(-c3ccc(C(=O)NC(C)c4ccccc4)cc3)oc2C)cc1 (centres undefined) | inactive: -7.15%
47 | COc1ccc(N2CCN(Cc3nc4c(c(=O)[nH]c(=O)n4C)n3Cc3ccccc3)CC2)cc1 | inactive: -21.1%
48 | Cn1c(=O)c2sccc2n2c(CCC(=O)NCc3ccccc3)nnc12 | inactive: -7.43%
49 | COc1ccc(Cl)cc1S(=O)(=O)Nc1cccc(-c2ccc(N3CCOCC3)nn2)c1 | inactive: 12%
50 | COC(=O)c1ccc(C(=O)OC)c(NC(=O)c2c(-c3ccccc3)c(-c3ccccc3)nn(C)c2=O)c1 | inactive: -37.3%
51 | Cc1ccc2c(c1)nc(SCC(O)c1ccc(Br)cc1)n2C (centres undefined) | inactive: -16.6%
52 | COc1cc(CNCCSc2nnnn2C)ccc1OCc1c(F)cccc1Cl | inactive: 14.1%
53 | CCOC(=O)c1[nH]c(C)c(C(=O)NCc2ccc(F)cc2)c1C | inactive: 11.4%
54 | Cc1cccc(-c2nnc(SCCC(=O)O)o2)c1 | inactive: 34.8%
55 | COc1ccc(N2CCN(c3oc(/C=C/c4cccc(OC)c4)nc3C#N)CC2)cc1 | inactive: -50.5%
56 | CCc1ccc(CNC(=O)C2CCN(c3nnc(-n4c(C)ccc4C)s3)CC2)cc1 | inactive: -21.2%
57 | Cc1cccc(NC(=O)CN2C(=O)CCc3ccccc32)c1C | inactive: -7.28%
58 | CCOc1ccc(CCNC(=O)c2cnc3c(-c4ccccc4)c(C)nn3c2C)cc1OCC | inactive: -5.23%
59 | COc1ccccc1CNC(=O)C(C)n1c(=O)cc(C(F)(F)F)c2c(C)nn(C)c21 (centres undefined) | inactive: -0.0193%
60 | O=[N+]([O-])c1ccc(C(c2sc3nc(-c4ccco4)nn3c2O)N2CCC3(CC2)OCCO3)cc1 (centres undefined) | inactive: -3.15%
61 | CC(C)c1ccc(OCC(=O)Nc2cc(-c3nc4ncccc4o3)ccc2Cl)cc1 | inactive: 27.6%
62 | Nc1ccn(C2CO[C@H](CO)O2)c(=O)n1 (some centres undefined) | inactive: 4.95%
63 | COc1cc(C2CC(=O)Nc3cc4c(cc32)OCCO4)cc(OC)c1O (centres undefined) | inactive: 40.8%

Row | SMILES | activation
64 | CCCCN(CCCC)c1nc(-c2ccccc2)nc2ccccc12 | active: 110%
65 | COc1ccc(C(Cl)=C(c2ccc(OC)cc2)c2ccc(OC)cc2)cc1 | inactive: -22%
66 | O=c1[nH]c2cc(C(F)(F)F)c(N3CCOCC3)cc2n(CP(=O)(O)O)c1=O | inactive: -13.2%
67 | CCCCC(=O)Nc1ccc(OCc2cc(=O)n3ccc(C)cc3n2)cc1 | inactive: -3.71%
68 | Cc1oncc1C(=O)Nc1ccc(C(F)(F)F)cc1 | inactive: 14% and inactive: -5.48%
69 | COc1ccccc1C(=O)Nc1c(C(=O)Nc2ccc(C)cc2)oc2ccccc12 | inactive: -2.75%
70 | CC1(c2ccccc2)CC(C)(C)N(C(=O)c2ccccc2Cl)c2ccccc21 (centres undefined) | inactive: -0.994%
71 | CCN(C(=O)c1cc2c(Cl)nc3ccc(C)cc3c2s1)c1cc(OC)ccc1OC | inactive: -9.44%
72 | CCC(=O)Nc1ccc(C)cc1-c1nc2ccccc2n(Cc2ccccc2)c1=O | inactive: -5.06%
73 | Cc1oc(-c2cccc(Cl)c2)nc1CSCC(=O)O | inactive: -17%
74 | NC(C(=O)N[C@@H]1C(=O)N2C(C(=O)O)=C(Cl)CS[C@H]12)c1ccccc1 (some centres undefined) | inactive: -7.31%
75 | CCOC(=O)c1c(N)sc2c1CCN(Cc1ccccc1)C2 | inactive: 13.3%
76 | COc1ccc(NC(=O)C2CCCN2S(=O)(=O)c2ccc3c(c2)CCCC(=O)N3)cc1Cl (centres undefined) | inactive: -5.72%
77 | COc1ccc(C(=O)Nc2ccc(-c3cc(C(F)(F)F)nn3-c3ccccc3)cc2)cc1OC | inactive: -6.9%
78 | COc1ccc(-c2nn(-c3ccc(F)cc3F)c3c2cnc2ccc(F)cc23)cc1 | inactive: -8.15%
79 | CC(=O)N1CCCc2cc(S(=O)(=O)NCc3ccc(OC(C)C)cc3)ccc21 | inactive: 9.46%
80 | CCOc1ccc(-c2nonc2NC(=O)c2oc3cc(Br)ccc3c2C)cc1 | inactive: -11%
81 | N#Cc1ccccc1NC(=O)C(=O)NCC(c1cccnc1)N1CCN(c2ccccc2)CC1 (centres undefined) | inactive: -3.3%
82 | Cc1cccc(C(=O)Nc2cccc(C(=O)OCc3cc(=O)n4nc(C5CC5)sc4n3)c2)c1 | inactive: -12.4%
83 | CCN1CCN(C(=O)c2ccc3c(c2)N(Cc2cc(C)ccc2C)C(=O)c2ccccc2S3(=O)=O)CC1 | inactive: -23.5%
84 | Cc1ccc(OCC(=O)Nc2ccc(-c3nc4ccc(C)cc4o3)cc2)cc1 | inactive: 0.206%
